Laboratory results: patent US6753151 (KUDOS PHARMACEUTICALS, dated 2004)

Tests used:
[1] = biological target: T1, His-tagged Ku80 (full length, N-terminal hexa-histidine tag, in biotinylated bacterial lysate) (human, UniProt P13010, biotinylated (crude lysate biotinylated at low levels; sites not given)); assay: GST pull-down from biotinylated E. coli lysate containing His-Ku80; streptavidin-HRP blot
T1 construct: Expressed at low levels in E. coli BL21 pLysS; used as crude, biotinylated soluble lysate; also called His-Ku80; full-length Ku80; not shown: N-terminal hexa-Histidine tag and vector residues from pET30a
Description: (§1) Approximately 1 mg of biotinylated bacterial extract (containing His-Ku70 or His-Ku80) was diluted 2-fold in buffer (50 mM Tris pH 8.0, 250 mM NaCl, 0.1% β-mercaptoethanol, 0.1% Triton X-100, Boehringer Complete Protease Inhibitors) and incubated for 3 hours at 4° C. with 1–2 ug of GST-Ku80, GST-Ku70, or deletion derivative thereof, immobilised on beads. The beads were washed seven times in NETN buffer (180 mM NaCl, 25 mM EDTA, 20 mM Tris pH 8.0, 0.5% NP-40), boiled in SDS gel-loading buffer and half the sample subjected to polyacrylamide gel electrophoresis. Proteins were subsequently transferred to nitrocellulose membrane. Membranes were probed with streptavidin conjugated to horseradish peroxidase (GiboBRL), and visualised by ECL (Pierce) and exposure to film.
(§2) Analysis of Interactions Between Bacterially-expressed Ku70 and Ku80 Deletion Derivatives In a complementary approach to the yeast 2-hybrid technique, the inventors used a "pull-down" assay to detect interactions between recombinant deletion derivatives of the two Ku subunits. To first establish the utility of this approach, they assayed for interaction between full-length Ku70 and Ku80 in this system. […] Interacting proteins were detected by probing these western blots with streptavidin that was conjugated to horse radish peroxidase (HRP). […]

[2] = biological target: T2, His-tagged Ku70 (full length, N-terminal hexa-histidine tag, in biotinylated bacterial lysate) (human, UniProt P12956, biotinylated (crude lysate biotinylated at low levels; sites not given)); assay: GST pull-down from biotinylated E. coli lysate containing His-Ku70; streptavidin-HRP blot
T2 construct: Expressed at low levels in E. coli BL21 pLysS; used as crude, biotinylated soluble lysate; also called His-Ku70; full-length Ku70; not shown: N-terminal hexa-Histidine tag and vector residues from pET30a
Description: as §1, §2

[3] = biological target: T3, DNA-dependent protein kinase catalytic subunit (DNA-PKcs), human, from HeLa cell nuclear extract (human, UniProt P78527); assay: GST pull-down of homogeneous DNA-PKcs, silver stain
T3 construct: mature; Used either within crude HeLa nuclear extract or as an essentially homogeneous preparation (about 1 Ku per 840 DNA-PKcs molecules); also called purified DNA-PKcs; homogeneous DNA-PKcs
T3 sequence (P78527 whole entry): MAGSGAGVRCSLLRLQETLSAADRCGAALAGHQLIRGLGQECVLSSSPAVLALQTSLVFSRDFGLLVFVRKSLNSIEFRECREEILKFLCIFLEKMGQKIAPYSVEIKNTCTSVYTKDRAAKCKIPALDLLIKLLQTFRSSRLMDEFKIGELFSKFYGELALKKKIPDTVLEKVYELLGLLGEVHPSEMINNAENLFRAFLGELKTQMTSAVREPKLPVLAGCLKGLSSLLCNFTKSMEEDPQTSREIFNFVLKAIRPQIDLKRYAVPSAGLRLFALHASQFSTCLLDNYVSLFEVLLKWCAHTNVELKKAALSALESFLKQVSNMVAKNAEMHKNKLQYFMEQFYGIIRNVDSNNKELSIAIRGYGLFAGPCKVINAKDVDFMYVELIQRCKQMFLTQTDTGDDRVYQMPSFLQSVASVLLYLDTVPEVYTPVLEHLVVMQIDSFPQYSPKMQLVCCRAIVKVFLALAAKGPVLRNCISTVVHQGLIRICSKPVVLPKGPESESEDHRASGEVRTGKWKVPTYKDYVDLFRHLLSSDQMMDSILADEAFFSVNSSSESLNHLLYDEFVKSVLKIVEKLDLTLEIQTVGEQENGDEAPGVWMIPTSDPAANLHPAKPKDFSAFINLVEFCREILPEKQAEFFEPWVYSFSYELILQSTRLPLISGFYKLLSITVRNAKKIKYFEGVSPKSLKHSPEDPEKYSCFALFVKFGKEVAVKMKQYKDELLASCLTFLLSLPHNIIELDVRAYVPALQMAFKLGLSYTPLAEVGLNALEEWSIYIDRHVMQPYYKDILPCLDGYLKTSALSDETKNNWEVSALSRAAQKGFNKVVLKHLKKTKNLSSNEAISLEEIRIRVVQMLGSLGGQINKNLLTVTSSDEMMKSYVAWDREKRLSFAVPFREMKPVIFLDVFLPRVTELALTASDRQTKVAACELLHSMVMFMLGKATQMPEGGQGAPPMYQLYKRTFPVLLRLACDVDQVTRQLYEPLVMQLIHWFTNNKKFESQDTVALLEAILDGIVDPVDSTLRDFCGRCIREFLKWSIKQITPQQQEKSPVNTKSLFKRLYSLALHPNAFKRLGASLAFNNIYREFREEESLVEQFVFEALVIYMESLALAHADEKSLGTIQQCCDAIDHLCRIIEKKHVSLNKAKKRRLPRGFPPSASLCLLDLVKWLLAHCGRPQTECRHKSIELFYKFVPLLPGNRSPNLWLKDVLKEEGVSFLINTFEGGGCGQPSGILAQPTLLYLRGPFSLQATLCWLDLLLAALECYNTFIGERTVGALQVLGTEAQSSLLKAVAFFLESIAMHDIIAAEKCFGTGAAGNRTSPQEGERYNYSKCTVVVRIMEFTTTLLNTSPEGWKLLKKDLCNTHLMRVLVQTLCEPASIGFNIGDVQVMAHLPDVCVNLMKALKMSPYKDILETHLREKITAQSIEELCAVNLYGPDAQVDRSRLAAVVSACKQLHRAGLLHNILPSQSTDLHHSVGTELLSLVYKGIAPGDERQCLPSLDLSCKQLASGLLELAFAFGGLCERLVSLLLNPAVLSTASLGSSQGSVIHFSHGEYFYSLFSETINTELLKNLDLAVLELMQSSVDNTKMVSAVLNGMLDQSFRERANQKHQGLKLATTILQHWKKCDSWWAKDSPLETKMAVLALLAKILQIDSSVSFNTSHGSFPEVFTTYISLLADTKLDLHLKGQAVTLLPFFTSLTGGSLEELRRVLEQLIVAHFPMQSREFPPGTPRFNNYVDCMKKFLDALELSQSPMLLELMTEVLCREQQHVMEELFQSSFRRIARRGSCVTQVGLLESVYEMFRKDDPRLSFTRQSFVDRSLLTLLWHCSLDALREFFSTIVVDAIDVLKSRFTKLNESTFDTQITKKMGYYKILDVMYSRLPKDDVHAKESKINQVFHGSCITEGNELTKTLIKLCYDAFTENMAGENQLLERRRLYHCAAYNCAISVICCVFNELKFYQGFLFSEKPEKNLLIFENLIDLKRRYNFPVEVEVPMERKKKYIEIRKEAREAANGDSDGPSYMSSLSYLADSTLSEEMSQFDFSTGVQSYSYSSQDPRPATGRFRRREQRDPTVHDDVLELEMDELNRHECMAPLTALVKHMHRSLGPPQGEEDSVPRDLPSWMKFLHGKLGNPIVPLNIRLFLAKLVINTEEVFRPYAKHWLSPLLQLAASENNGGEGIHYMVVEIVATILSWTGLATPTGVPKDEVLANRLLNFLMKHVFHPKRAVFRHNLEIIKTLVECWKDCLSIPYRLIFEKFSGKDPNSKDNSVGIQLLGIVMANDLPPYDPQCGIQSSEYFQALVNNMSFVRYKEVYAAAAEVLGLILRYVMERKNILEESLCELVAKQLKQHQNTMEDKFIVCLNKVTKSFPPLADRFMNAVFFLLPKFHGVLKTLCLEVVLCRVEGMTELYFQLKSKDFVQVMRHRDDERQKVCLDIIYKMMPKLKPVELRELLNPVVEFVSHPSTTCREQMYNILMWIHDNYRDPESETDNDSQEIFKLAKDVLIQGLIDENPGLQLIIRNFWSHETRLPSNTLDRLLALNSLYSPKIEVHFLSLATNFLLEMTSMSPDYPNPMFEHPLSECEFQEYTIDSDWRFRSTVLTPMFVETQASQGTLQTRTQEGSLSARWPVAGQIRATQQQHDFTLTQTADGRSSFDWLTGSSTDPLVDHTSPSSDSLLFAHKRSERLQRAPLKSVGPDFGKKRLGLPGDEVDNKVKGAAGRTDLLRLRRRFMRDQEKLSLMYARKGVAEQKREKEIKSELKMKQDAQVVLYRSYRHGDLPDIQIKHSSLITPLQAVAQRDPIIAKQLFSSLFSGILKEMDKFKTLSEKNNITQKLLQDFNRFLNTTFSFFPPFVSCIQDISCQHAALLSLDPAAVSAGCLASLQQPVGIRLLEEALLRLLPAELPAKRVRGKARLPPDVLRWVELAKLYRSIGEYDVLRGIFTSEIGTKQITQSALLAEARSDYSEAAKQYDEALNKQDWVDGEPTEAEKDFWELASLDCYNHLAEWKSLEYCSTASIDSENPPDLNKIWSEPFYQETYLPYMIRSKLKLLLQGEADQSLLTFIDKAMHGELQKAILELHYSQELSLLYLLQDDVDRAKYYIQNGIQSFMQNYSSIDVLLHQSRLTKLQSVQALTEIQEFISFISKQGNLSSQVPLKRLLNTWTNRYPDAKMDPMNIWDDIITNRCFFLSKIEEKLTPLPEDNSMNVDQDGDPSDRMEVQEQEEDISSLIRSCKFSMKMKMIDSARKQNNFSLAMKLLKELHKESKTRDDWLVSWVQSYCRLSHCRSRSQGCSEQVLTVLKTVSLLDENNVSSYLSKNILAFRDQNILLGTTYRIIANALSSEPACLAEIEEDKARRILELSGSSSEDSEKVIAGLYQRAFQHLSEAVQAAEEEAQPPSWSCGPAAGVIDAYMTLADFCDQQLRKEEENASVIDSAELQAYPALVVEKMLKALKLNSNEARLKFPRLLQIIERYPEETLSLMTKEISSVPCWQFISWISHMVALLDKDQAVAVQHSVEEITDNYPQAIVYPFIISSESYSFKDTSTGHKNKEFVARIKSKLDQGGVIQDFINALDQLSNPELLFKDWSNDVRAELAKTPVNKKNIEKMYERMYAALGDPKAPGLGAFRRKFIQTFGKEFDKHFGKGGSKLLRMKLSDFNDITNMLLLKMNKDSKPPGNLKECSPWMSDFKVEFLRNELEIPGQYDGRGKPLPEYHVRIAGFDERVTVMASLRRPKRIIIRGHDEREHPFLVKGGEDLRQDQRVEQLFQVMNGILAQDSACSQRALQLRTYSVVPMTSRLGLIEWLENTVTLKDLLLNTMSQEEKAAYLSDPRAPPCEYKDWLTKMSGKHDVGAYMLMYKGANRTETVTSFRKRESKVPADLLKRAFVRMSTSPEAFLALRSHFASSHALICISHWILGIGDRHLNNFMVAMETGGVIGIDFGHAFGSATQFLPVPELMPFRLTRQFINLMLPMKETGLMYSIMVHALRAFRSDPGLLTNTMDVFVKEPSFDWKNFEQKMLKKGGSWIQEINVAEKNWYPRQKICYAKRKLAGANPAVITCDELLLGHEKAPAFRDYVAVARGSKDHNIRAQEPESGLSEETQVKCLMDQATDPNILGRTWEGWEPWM

T1 sequence (P13010 2-732): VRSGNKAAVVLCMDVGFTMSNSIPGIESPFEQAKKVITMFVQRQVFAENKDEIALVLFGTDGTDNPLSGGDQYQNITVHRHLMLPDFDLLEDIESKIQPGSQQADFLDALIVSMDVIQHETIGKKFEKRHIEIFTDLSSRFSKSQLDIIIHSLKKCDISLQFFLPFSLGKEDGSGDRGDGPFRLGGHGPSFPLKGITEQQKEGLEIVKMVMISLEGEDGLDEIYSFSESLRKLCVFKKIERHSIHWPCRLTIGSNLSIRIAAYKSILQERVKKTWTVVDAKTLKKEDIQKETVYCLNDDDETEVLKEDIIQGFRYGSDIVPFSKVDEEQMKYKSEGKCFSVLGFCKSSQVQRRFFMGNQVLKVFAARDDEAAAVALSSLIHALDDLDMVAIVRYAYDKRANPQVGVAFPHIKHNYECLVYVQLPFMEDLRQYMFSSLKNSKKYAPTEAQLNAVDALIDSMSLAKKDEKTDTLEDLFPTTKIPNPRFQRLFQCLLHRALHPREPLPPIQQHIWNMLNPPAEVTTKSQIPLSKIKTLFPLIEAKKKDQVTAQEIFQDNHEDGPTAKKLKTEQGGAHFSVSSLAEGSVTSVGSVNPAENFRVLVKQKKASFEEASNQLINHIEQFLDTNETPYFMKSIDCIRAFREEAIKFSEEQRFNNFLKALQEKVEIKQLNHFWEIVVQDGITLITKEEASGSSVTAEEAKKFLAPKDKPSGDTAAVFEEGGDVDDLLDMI

- binding result [1]: no binding
- binding result [2]: no binding
- binding result [3]: no binding (tested: 50 mM to 150 mM KCl)
B1: GST alone (other)
chain: not shown
notes: Control protein on glutathione agarose beads; also called beads containing only GST
